Data taken from PubChem BioAssay AID686970 (National Center for Advancing Translational Sciences (NCATS), 2013).
Among all 360,000 compounds or so, about 6,000 (1.7%) were called active. This list was built around the results that the source calls inconclusive (neither active nor inactive); the mix of calls is not that of the screen. The call rests on the fitted dose curve; in most records, active means well fitted cell-killing curve with a large enough effect; inconclusive means small, poorly fitted or top-dose-only effect, or effect the other way; inactive means flat fitted curve, though single readings scatter. No potency is given beside an inconclusive call; the fits are too rough.

test: qHTS for induction of synthetic lethality in tumor cells producing 2HG: qHTS for the HT-1080-NT fibrosarcoma cell line; settings: HT-1080-NT fibrosarcoma viability, CellTiter-Glo ATP luminescence, 48 h; activity, negative = less viability: at 46.1 µM (top of the series) unless noted;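 further: NT is the 2HG producing partner of a matched IDH1 knockdown line; nearly all actives have a fitted effect of over 55% in size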;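 on activity, negative = less viability: 0% = DMSO-treated cells and -100% = media-only wells without cells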
Procedure, shortened: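 Read-out is CellTiter-Glo luminescence after 10 minutes at room temperature, following 48 hours' compound treatment of HT-1080-NT cells (750 cells/well, RPMI, 5% FBS, 37 degrees C).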
Potency means the concentration at half of the fitted maximal effect; tags describe the fitted curve by direction and shape.

Row | SMILES | Potency | activity, negative = less viability
1 | N#CCCN(C(=O)COC(=O)C1CCN(S(=O)(=O)c2ccccc2C(F)(F)F)CC1)c1ccccc1 | inactive | –
2 | COc1cc(C(=O)NC2CCN(C)CC2)ccc1Nc1ncc2c(n1)N(Cc1ccccc1)CCC(=O)N2C | active: 20.6 µM | –
3 | O=C(c1ccc(Cl)cc1)c1ccc(OCC(O)CN2CCCCC2)cc1 (centres undefined) | inconclusive [cytotoxic, partial curve] | –
4 | Cn1cc(C(=O)C(=O)N2CCCc3ccccc32)c2ccccc21 | inconclusive [cytotoxic, single point] | –
5 | Cc1nc(NC(=O)COC(=O)c2cccs2)c(Cl)cc1Cl | inactive | –
6 | N#CC1C=Cc2c(ccc3ccccc23)N1C(=O)c1ccccc1 (centres undefined) | active: 1.84 µM | –
7 | O=C(NC12CC3CC(CC(C3)C1)C2)c1ccc(-c2ccc(Cl)cc2)o1 | inactive | –
8 | O=C(CN1C(=O)c2ccccc2S1(=O)=O)NC1CCCCCC1 | inconclusive [rising, single point] | –
9 | CCCCNc1c(-c2ccc(-c3cccc(Cl)c3)cc2)nc2ccccn12 | inconclusive [cytotoxic, single point] | –
10 | CCCCC(=O)N(C)c1c(CC)nc2c(OCCC3CCCCC3)cccn12 | inconclusive [cytotoxic, single point] | –
11 | Cc1noc(C)c1C(=O)OCC(=O)c1ccc[nH]1 | inactive | –
12 | COc1ccc(-c2nc3c(C)cc(Br)cn3c2Cc2cccc(F)c2)cc1OC | inconclusive [cytotoxic, single point] | –
13 | O=C(/C=C/c1ccccc1F)c1ccoc1 | inconclusive [cytotoxic, single point] | –
14 | CC(C)Cn1c(-c2cc(Br)ccc2F)nc2c1c(=O)[nH]c(=O)n2CC(C)C | inconclusive [cytotoxic, single point] | –
15 | CCn1c(SCC(=O)N2CCOCC2)nc2c([nH]c3ccccc32)c1=O | inactive | –
16 | CCCCCCCCN1C(=O)[C@H](CC(=O)N2CCOCC2)C[C@@]2(C(=O)OCC)CCCC=C12 | inconclusive [cytotoxic, single point] | –
17 | Cc1cc2c(cc1C)-c1nnnn1C(N1CCC(Cc3ccccc3)CC1)C(=O)N2 (centres undefined) | inconclusive [cytotoxic, single point] | –
18 | O=C(C(=NNc1ccccc1)c1ccccc1)c1ccccc1 | inconclusive [cytotoxic, single point] | –
19 | CN1CCN(CCOCCOc2c(Cl)cc(Cl)cc2Cl)CC1 | inconclusive [cytotoxic, single point] | –
20 | Cc1cc(C)c2nc(C(F)(F)F)nc(NCCCN3CCOCC3)c2c1 | active: 17.8 µM | –
21 | Clc1ncc(C#Cc2ccccc2)c2ncncc12 | inconclusive [cytotoxic, single point] | –
22 | COC(=O)[C@@]12C[C@@H](CC(=O)NCCCCc3ccccc3)C(=O)N(Cc3cccc4ccccc34)C1=CCC(C)(C)C2 | inconclusive [cytotoxic, single point] | –

Row | SMILES | Potency | activity, negative = less viability
23 | COC(=O)CSc1nc(N)c2c3c(sc2n1)C(c1ccccc1)SC(c1ccccc1)C3 (centres undefined) | inconclusive [cytotoxic, single point] | –
24 | Cc1cccc2cc3c(N)c(C(=O)N4CCCc5ccccc54)sc3nc12 | active: 3.26 µM | –
25 | Cc1cc(N)n2nc(-c3ccc(C(C)(C)C)cc3)cc2n1 | active: 16.4 µM | –
26 | CC[C@]12c3[nH]c4cc(-c5ccco5)ccc4c3CCN1C(=O)[C@@H](CC(=O)NCC13CC4CC(CC(C4)C1)C3)C[C@@H]2C(=O)N1CCN(C(=O)c2ccco2)CC1 | – | inconclusive: -30.6% [cytotoxic]
27 | Nc1nc2cc3c(cc2cc1C(=O)NCc1ccc(F)cc1)OCO3 | – | inconclusive: -36.8% [cytotoxic]
28 | C/C(=N\NC(=O)C1CC1)c1ccccc1O | inactive | –
29 | CC(=NNC(=O)c1ccncc1)c1ccc(Cl)c(Cl)c1 | – | inconclusive: 17.9%
30 | COCCn1c(=NC(=O)c2nc3ccccc3s2)sc2cc(S(C)(=O)=O)ccc21 | inactive | –
31 | O=c1c2cc(NC(=S)N3CCC(N4CCCCC4)CC3)ccc2nc2n1CCCCC2 | inconclusive [cytotoxic, partial curve, poor fit] | –
32 | O=C1[C@@H]2[C@H](C(=O)N1n1cnnc1)[C@H]1C=C[C@@H]2C1 | inconclusive [rising, partial curve, poor fit] | –
33 | O=C(COc1ccc(C(=O)c2ccccc2)cc1)Nc1cccnc1 | inconclusive [cytotoxic, full curve] | –
34 | CCOC(=O)N1CCC2(CC1)C(C#N)=C(N)Oc1n[nH]c(CSc3ccc(C)cc3)c12 | inconclusive [cytotoxic, single point] | –
35 | COC(=O)c1ccc(Oc2ccc(S(=O)(=O)N3CCCCC3)cc2N)cc1 | inconclusive [cytotoxic, partial curve] | –
36 | N#C/C(=C\c1ccc(-c2ccc(C(=O)O)cc2)o1)c1nc2ccccc2[nH]1 | inactive | –
37 | O=C(Nc1nc2ccccc2s1)C1CCN(S(=O)(=O)c2cc([N+](=O)[O-])ccc2Cl)CC1 | inconclusive [cytotoxic, single point] | –
38 | CCOC(=O)C(=O)N(C)c1c(CC)nc2c(OCc3ccccc3OC)cccn12 | inactive | –
39 | CC(C)c1nc(SCC(=O)N2CCCC2)c2ccccc2n1 | inactive | –
40 | CC(=O)C1=C(O)C(=O)N(Cc2ccccc2)C1c1ccc(N(C)C)cc1 (centres undefined) | inconclusive [cytotoxic, partial curve] | –
41 | CCOC(=O)c1c(C)[nH]c(C)c1C(=O)COC(=O)[C@@H](NC(=O)c1ccccc1OCC)C(C)C | inconclusive [cytotoxic, single point] | –
42 | Nc1cccc(-c2nc3ccc(N)cc3s2)c1 | inconclusive [cytotoxic, partial curve] | –
43 | CCOc1ccc2ccccc2c1C(=O)N1CCN(c2ccccc2)CC1 | inconclusive [cytotoxic, single point] | –
44 | Cc1ccc(-n2c(-c3ccccc3)c[n+]3c2CCc2ccccc2-3)c(C)c1 | active: 23.1 µM | –
